About 5,800 (2.1%) of roughly 270,000 compounds were called active. Inconclusive means that the source gave no clear call. Such entries were picked first, then a sample of the others. Calls follow the shape of the dose curve; as a rule, active = well fitted inhibition curve with a large enough effect; inconclusive = small, poorly fitted or top-dose-only effect; inactive = flat fitted curve, though single readings scatter. Where the call is inconclusive, the potency comes from a doubtful curve fit.
Biological target: Microtubule-associated protein tau (Homo sapiens) (UniProt P10636)
UniProt P10636, sequence (P10636 whole entry, looked up): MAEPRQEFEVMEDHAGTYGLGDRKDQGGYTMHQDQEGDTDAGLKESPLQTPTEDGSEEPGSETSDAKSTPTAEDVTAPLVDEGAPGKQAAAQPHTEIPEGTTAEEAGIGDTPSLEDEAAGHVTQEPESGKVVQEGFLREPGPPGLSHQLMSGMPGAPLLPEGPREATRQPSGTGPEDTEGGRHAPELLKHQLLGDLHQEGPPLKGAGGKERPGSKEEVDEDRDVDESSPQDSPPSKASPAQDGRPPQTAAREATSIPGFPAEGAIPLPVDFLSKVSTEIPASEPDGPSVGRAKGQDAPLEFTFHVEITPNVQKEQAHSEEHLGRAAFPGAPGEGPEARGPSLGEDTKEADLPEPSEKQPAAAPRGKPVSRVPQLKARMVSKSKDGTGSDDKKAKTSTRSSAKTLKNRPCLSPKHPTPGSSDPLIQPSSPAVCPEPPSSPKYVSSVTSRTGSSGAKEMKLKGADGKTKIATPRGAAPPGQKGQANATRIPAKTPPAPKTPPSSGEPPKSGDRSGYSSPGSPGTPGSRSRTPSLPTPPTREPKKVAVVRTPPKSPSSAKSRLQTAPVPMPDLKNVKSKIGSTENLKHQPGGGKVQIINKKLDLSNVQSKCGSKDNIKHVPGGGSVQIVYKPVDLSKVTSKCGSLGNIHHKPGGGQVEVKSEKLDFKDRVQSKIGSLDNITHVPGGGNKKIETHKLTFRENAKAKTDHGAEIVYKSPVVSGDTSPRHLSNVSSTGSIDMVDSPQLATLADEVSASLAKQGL
Assay: qHTS for Inhibitors of Tau Fibril Formation, Thioflavin T Binding; also: nearly all actives have a fitted effect of over 55% in size
Details: recombinant tau K18 P301L (four-repeat tau fragment), heparin-induced fibrillization, ThT fluorescence; series mostly up to 57.4 µM; activity, negative = inhibition: at the top concentration
Summary of the method: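 In this qHTS, human K18 P301L tau is incubated with compound and heparin for 6 hr at 37 C, and Thioflavin T fluorescence then reports fibril load.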
% is scaled to controls: 0 for no effect and ±100 for the full control effect; potency is read from the fitted curve at half-maximal effect; tags tell the direction and shape of the fitted curve.

| SMILES | activity, negative = inhibition | Potency |
| --- | --- | --- |
| O=[N+]([O-])c1cc(S(=O)(=O)c2ccc(N3CCCCC3)c([N+](=O)[O-])c2)ccc1N1CCCCC1 | inactive: 0.807% |  |
| COc1ccc(C(=O)/C=C/C(=O)N(Cc2ccccc2)C(C(=O)NC2CCCCC2)c2ccncc2)c(O)c1 (configuration not stated) | inactive: -12.5% |  |
| CCOC(=O)c1ccc(NCc2ccc3c(c2)OCO3)cc1 |  | inconclusive: 3.98 µM [inhibitor, full curve] |
| CCOC(=O)c1ccc(NC(=O)Nc2ccc(OC)c(OC)c2)cc1 |  | inconclusive: 3.98 µM [inhibitor, partial curve] |
| CC1=C(C(=O)Nc2ccccc2)C(c2ccc[nH]2)n2ncnc2N1 (configuration not stated) |  | inconclusive: 22.4 µM [inhibitor, single point] |
| Cc1cc(NC(=O)c2cc3n(n2)C(C(F)(F)F)CC(c2ccco2)N3)n(-c2ccccc2)n1 (configuration not stated) |  | inconclusive: 12.6 µM [inhibitor, partial curve] |
| CC(C)OC(=O)CC(=O)CSc1nc(-c2ccc(F)cc2)cc(-c2ccccc2)c1C#N | inactive: -13.7% |  |
| O=C(c1cc2c(s1)CCCCC2)N1CCN(c2ncccn2)CC1 |  | inconclusive: 31.6 µM [inhibitor, single point] |
| Cc1cc(C)nc(N/N=C/c2ccc(N3CCOCC3)cc2)n1 |  | inconclusive: 15.8 µM [inhibitor, partial curve] |
| CN1C=CC=C/C1=C1\SC(=S)N(N)C1=O |  | inconclusive: 17.8 µM [inhibitor, single point] |
| CC(C)(C)OC(=O)NCCCC1=CC2=CC(=O)C(C)(O)C(=O)C2=CO1 (configuration not stated) | inactive: 8.22% |  |
| Cn1c(=O)c([N+](=O)[O-])c(NCCCn2ccnc2)c2ccccc21 | inactive: -7.23% |  |
| COc1cc(/C=C(\C#N)C(=O)NC(C)C)ccc1OCc1ccc(C(=O)O)cc1 |  | inconclusive: 44.7 µM [inhibitor, single point] |
| O=c1oc(-c2ccccc2[N+](=O)[O-])nc2ccccc12 |  | inconclusive: 25.1 µM [inhibitor, partial curve, poor fit] |
| COc1ccc(C(C[N+](=O)[O-])c2c(C)cc3ccccn23)cc1 (configuration not stated) |  | inconclusive: 22.4 µM [inhibitor, partial curve] |
| CCCOc1ccc(OC(=O)c2cn(-c3ccc(OC)cc3)c(=O)c3ccccc23)cc1 | inactive: -6.42% |  |
| Cc1ccn2c(NC3CCCC3)c(-c3cccs3)nc2c1 |  | inconclusive: 31.6 µM [inhibitor, partial curve, poor fit] |
| COc1cc(Cn2c(-c3nonc3N)nc3ccccc32)ccc1C | inactive: 3.66% |  |
| CCCOc1ccc(C(=O)Nc2ccc3oc(-c4ccc(N(C)C)cc4)nc3c2)cc1 |  | inconclusive: 1.12 µM [inhibitor, full curve] |
| O=C(CNc1ccccc1)N/N=C/c1ccc([N+](=O)[O-])cc1 |  | inconclusive: 14.1 µM [inhibitor, partial curve] |
| CCOC(=O)c1ccc(COC(=O)c2ccc3c(c2)-c2ccccc2C3=O)cc1 |  | inconclusive: 1.26 µM [inhibitor, full curve] |

| SMILES | activity, negative = inhibition | Potency |
| --- | --- | --- |
| Cc1ccc(S(=O)(=O)/N=C2/NC(=O)/C(=C/c3ccccc3)S2)cc1 | inactive: -5.95% |  |
| N#C/C(=C(/O)CSc1nnc(Cc2cccs2)n1C1CCCCC1)c1nc2ccccc2[nH]1 |  | inconclusive: 25.1 µM [inhibitor, partial curve, poor fit] |
| COc1ccc(NC(=O)c2csnn2)cc1 |  | inconclusive: 39.8 µM [inhibitor, single point] |
| Cc1ccc(NC(=O)Cn2c(=O)n(Cc3ccc(C(=O)NCc4ccc5c(c4)OCO5)cc3)c(=O)c3ccccc32)cc1 | inactive: 1.95% |  |
| NC(=S)N=Nc1c(O)[nH]c2ccccc12 |  | inconclusive: 12.6 µM [inhibitor, partial curve] |
| COc1ccc(CNc2ncnc3c2[nH]c2cc(OC)c(OC)cc23)cc1 |  | inconclusive: 3.98 µM [inhibitor, full curve] |
| COc1ccc(N=C2S/C(=C\c3ccc(C)o3)C(=O)N2CC(C)C)cc1 |  | inconclusive: 28.2 µM [inhibitor, partial curve] |
| COCCNC(=O)Nc1ccc2c(c1)N(C)C(=O)CS2 |  | inconclusive: 20 µM [inhibitor, partial curve, poor fit] |
| COc1ccccc1NC(=O)COc1ccccc1C(=O)c1cnn(-c2ccccc2)c1 |  | inconclusive: 14.1 µM [inhibitor, partial curve] |
| O=C(Nc1ccc(S(=O)(=O)NCc2ccco2)cc1)C1CCCCC1 | inactive: -15.7% |  |
| O=C(OCc1cc(=O)n2nc(C3CC3)sc2n1)c1ccccc1Cl |  | inconclusive: 2.51 µM [inhibitor, partial curve] |
| CCOC(=O)N1CCN(c2cc(=O)n(-c3ccc(Br)cc3)c(=O)[nH]2)CC1 |  | inconclusive: 22.4 µM [inhibitor, single point] |
| Cc1cccnc1NC(=S)NC(=O)/C=C/c1ccccc1 |  | inconclusive: 31.6 µM [inhibitor, single point] |
| C/C(=N/NC(=O)c1ccncc1)c1cc2ccc(O)cc2oc1=O |  | inconclusive: 14.1 µM [activator, partial curve] |
| COc1cc(NC(=O)c2nc3ccccc3n(C)c2=O)cc(OC)c1OC |  | inconclusive: 25.1 µM [inhibitor, partial curve] |
| Cc1cccc(N2CCN(C(=O)c3ccc4c(Cl)c5c(nc4c3)CCCC5)CC2)c1C |  | inconclusive: 11.2 µM [inhibitor, partial curve] |
| O=C(CCCNS(=O)(=O)c1cccs1)N1CCN(c2ccc(F)cc2)CC1 |  | inconclusive: 14.1 µM [inhibitor, partial curve, poor fit] |
| CCOc1ccccc1NC(=O)C1=C(C)Nc2ncnn2C1c1cccs1 (configuration not stated) | inactive: 3.34% |  |
| O=C(N[C@H]1CCCc2ccccc21)O[C@@H]1C(=O)c2cc(Br)ccc2O[C@H]1c1ccc2c(c1)OCO2 | inactive: -7.67% |  |
| O=C(C(=O)N1CCc2ccccc2C1)c1cn(CC(=O)N2CCCC2)c2ccccc12 | inactive: -7.69% |  |
| O=C(c1ccc2nc(-c3ccco3)c(-c3ccco3)nc2c1)N1CCN(c2ccccc2)CC1 |  | inconclusive: 14.1 µM [inhibitor, partial curve] |
